Test results: PubChem BioAssay AID1347165 (National Center for Advancing Translational Sciences (NCATS), 2019)
Screen size: about 220,000 compounds; about 5,700 (2.6%) were called active. Inconclusive results, whose numbers are uncertain, are shown with a selection of clear calls. Calls follow the shape of the dose curve; as a rule, active = well fitted inhibition curve with a large enough effect; inconclusive = small, poorly fitted or top-dose-only effect; inactive = no such curve, though single readings can be large or run the other way. Potencies of inconclusive entries are doubtful fits and often do not repeat.

The molecules below were run against Lysine-specific demethylase 5B (Homo sapiens) (UniProt Q9UGL1) (assay: Primary screen for KDM5B Histone Demethylases FDH-coupled qHTS). Conditions: FDH-coupled NADH fluorescence (FDH is formaldehyde dehydrogenase); activity change, negative = inhibition: at 57.7 µM (top of the series) unless noted.
Sequence of UniProt Q9UGL1 (Q9UGL1 whole entry, looked up): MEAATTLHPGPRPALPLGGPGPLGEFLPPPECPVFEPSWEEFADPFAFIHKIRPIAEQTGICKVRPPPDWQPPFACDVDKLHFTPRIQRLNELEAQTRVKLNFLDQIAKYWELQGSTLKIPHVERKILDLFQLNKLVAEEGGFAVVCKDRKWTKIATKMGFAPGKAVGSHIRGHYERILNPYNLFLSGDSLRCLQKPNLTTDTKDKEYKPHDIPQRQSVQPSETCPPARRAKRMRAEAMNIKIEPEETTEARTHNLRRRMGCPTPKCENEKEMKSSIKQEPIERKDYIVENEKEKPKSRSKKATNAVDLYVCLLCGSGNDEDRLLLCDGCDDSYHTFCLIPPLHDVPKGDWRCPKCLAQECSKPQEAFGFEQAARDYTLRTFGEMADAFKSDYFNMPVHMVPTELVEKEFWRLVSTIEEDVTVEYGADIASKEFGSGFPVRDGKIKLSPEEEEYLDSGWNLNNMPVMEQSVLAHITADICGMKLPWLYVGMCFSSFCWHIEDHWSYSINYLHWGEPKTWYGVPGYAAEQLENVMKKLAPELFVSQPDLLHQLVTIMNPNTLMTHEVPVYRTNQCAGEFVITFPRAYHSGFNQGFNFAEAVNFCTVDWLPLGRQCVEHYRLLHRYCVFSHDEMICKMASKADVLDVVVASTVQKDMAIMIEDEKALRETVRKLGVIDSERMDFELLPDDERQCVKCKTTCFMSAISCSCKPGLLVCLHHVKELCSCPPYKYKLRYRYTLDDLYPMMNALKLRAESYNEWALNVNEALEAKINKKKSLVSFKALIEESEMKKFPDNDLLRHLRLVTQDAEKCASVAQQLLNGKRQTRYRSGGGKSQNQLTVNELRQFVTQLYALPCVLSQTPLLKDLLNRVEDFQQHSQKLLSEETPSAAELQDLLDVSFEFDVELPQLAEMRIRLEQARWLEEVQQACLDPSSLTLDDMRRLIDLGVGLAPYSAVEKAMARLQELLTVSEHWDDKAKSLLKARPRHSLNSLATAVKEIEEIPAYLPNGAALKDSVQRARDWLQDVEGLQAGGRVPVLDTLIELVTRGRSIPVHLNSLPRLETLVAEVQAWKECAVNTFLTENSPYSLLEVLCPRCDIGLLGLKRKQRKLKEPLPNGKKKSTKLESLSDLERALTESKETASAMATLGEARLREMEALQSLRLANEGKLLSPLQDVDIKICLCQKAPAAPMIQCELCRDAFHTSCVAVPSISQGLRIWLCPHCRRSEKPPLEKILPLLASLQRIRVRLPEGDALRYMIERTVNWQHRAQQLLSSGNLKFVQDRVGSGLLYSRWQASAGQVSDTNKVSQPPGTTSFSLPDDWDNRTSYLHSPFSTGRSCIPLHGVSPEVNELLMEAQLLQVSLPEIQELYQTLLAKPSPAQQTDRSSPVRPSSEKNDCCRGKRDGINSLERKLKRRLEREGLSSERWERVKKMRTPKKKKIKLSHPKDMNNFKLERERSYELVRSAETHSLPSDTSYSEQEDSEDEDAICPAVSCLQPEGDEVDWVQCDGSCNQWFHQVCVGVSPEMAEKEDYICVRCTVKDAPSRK
In short: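 Compound dilutions met 200 nM (final) KDM5BΔAP for 10 min at room temperature before substrate addition. The substrate mix held 12.5 µM H3K4me3 with cofactors 25 µM α-ketoglutarate and 50 µM Fe²⁺. NADH signal gain over 30 min defined activity.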
Also: nearly all actives have a fitted effect of over 70% in size.
For activity change, negative = inhibition in this document: 0% is about no effect.
Potency is read from the fitted curve at half-maximal effect; tags tell the direction and shape of the fitted curve.

Structure (SMILES)	activity change, negative = inhibition	Potency
COc1ccc2c(C)cc(SCC(=O)NC(C)c3ccccc3)nc2c1 (stereo not drawn)	inactive: -27.5%	
CCCCN(CC)C(=O)CSc1nc2n[nH]c(C)c2c(=N)n1-c1ccc(CC)cc1		inconclusive: 35.5 µM [inhibitor, partial curve, poor fit]
COc1ccccc1OCc1nc2c(n1Cc1ccccc1)C(=O)N(Cc1cccc(Cl)c1)CCN2		inconclusive: 28.2 µM [inhibitor, partial curve, poor fit]
Cc1ccc(C2(O)CCN(c3nccc(CCC(F)(F)F)n3)CC2)nc1		active: 22.4 µM
O=C(c1nc(-c2ccccc2)c2ccccn12)N1CCOCC1		active: 39.8 µM
Cc1oc2cc(OCC(=O)N(C)C3CCS(=O)(=O)C3)ccc2c(=O)c1Oc1ccccc1 (stereo not drawn)		inconclusive: 28.2 µM [inhibitor, single point]
CCOc1ccc(CNC(=O)c2oc3c(c2C)-c2nn(Cc4cccc(Cl)c4)cc2CC3)cc1		inconclusive: 15.8 µM [inhibitor, partial curve, poor fit]
COc1ncc(-c2nccc3c(=O)cc(N(C)c4ccccc4)oc23)cn1	inactive: -7.98% [at 86.2 µM]	
COc1ccc(C)c2sc(NC(=O)c3ccc(S(=O)(=O)N(C)C)cc3)nc12		inconclusive: 25.1 µM [inhibitor, partial curve, poor fit]
O=C1CCCCC1Sc1nc2cc(Cl)ccc2s1 (stereo not drawn)	inactive: 6.2%	
Cc1[nH][nH]c(=O)c1C(c1ccccc1OCc1ccccc1Cl)c1c(C)[nH][nH]c1=O		inconclusive: 12.6 µM [inhibitor, partial curve, poor fit]
COc1ccc(CN2CCC3(CC(=O)Nc4ccccc4N3)C2)cc1 (stereo not drawn)	inactive: -6.64% [at 149 µM]	
CCCCOc1ccccc1C1CC(=O)Nc2ccc3ccccc3c21 (stereo not drawn)		inconclusive: 39.8 µM [inhibitor, single point]
CC(=O)c1ccc(NC(=O)C(C)OC(=O)c2nn(-c3ccccc3)c(=O)c3ccccc23)cc1 (stereo not drawn)	inactive: 77.2%	
CCOC(=O)c1ccc(N2C(=O)c3n[nH]c(-c4ccco4)c3C2c2ccc(C(=O)OC)cc2)cc1 (stereo not drawn)		inconclusive: 35.5 µM [inhibitor, single point]
CC(=O)Nc1cccc(-c2nc(-c3ccccc3)no2)c1	inactive: -11.6%	
COc1ccc(C(C)=O)cc1CC(=O)Nc1cc(S(C)(=O)=O)ccc1C	inactive: 11.4%	
COC(=O)c1ccccc1NC(=O)[C@H]1O[C@@H]2OC(C)(C)O[C@@H]2[C@H]2OC(C)(C)O[C@H]21		inconclusive: 35.5 µM [inhibitor, single point]
CC1CCCN(C(=O)CSc2nc(-c3ccco3)cc(C(F)(F)F)n2)C1 (stereo not drawn)	inactive: 14.7%	
COc1cc(C(=O)N2CCC[C@H]2c2nc(-c3ccccc3Cl)no2)cc(OC)c1OC	inactive: 2.39%	
CN(C)c1ccc(C(=O)N2CCC(Oc3nccnc3N(C)C)C2)cc1 (stereo not drawn)		inconclusive: 28.2 µM [inhibitor, partial curve, poor fit]
C=CC#CC[N+](C)(C)CC#Cc1cccc2ccccc12		inconclusive: 31.6 µM [inhibitor, single point]

Structure (SMILES)	activity change, negative = inhibition	Potency
Oc1ccc(C=Nc2cccc3ccccc23)cc1		inconclusive: 22.4 µM [inhibitor, partial curve, poor fit]
CS(=O)(=O)N(C1CCOCC1)C1CN(C(=O)c2cc3ccccc3[nH]2)C1		inconclusive: 22.4 µM [inhibitor, single point]
O=C(NC1CCN(Cc2ccccc2)C1)c1cc2ccccc2oc1=O (stereo not drawn)		inconclusive: 35.5 µM [inhibitor, single point]
COc1ccc(S(=O)(=O)NCC2CCC(C(=O)NCC(=O)NCc3cccnc3)CC2)cc1 (stereo not drawn)	inactive: 0.835%	
COc1ccccc1CNc1nc(NCc2ccccc2OC)n(S(=O)(=O)c2ccccc2)n1		inconclusive: 31.6 µM [inhibitor, single point]
C/C(=N\NC(N)=S)c1ccc2c3c(cccc13)CC2		inconclusive: 11.2 µM [inhibitor, partial curve, poor fit]
COC(=O)[C@@H]1Cc2c([nH]c3ccccc23)[C@H]2C[C@@H](NCCNC(C)=O)C[C@@H](c3ccc(C(C)C)cc3)N21		inconclusive: 3.16 µM [inhibitor, full curve, poor fit]
CCC(=O)OCc1cc(=O)n2nc(C3CC3)sc2n1	inconclusive: -31.6% [inhibitor]	
Cc1ccc(NC(=O)CN2C(=O)COc3ccc(S(=O)(=O)N4CCCCCC4)cc32)c(C)c1		inconclusive: 31.6 µM [inhibitor, partial curve, poor fit]
CCOC(=O)NC(C(Cl)(Cl)Cl)S(=O)(=O)c1ccccc1 (stereo not drawn)		inconclusive: 39.8 µM [inhibitor, single point]
COc1ccc2c(=O)cc(-c3ccccc3)oc2c1		inconclusive: 22.4 µM [inhibitor, partial curve, poor fit]
O=C(NNC(=O)C1CCCC1)c1ccc(Br)cc1	inactive: 16.5%	
Cc1cccc2c1-c1sc(C(=O)Nc3ccc(F)cc3F)cc1CO2		inconclusive: 28.2 µM [inhibitor, partial curve, poor fit]
Cc1ccc(Cn2cc(-c3ccncc3)cc2C(=O)NCC2CC2)cc1		active: 35.5 µM
Cc1ccn2cc(C(=O)N3CCN(c4cccc(Cl)c4)CC3)nc2c1	inactive: 3.01%	
COC(=O)COc1ccc(-c2nnc(Nc3ccc(O)cc3)c3ccccc23)cc1		inconclusive: 5.62 µM [inhibitor, partial curve, poor fit]
C/C(=N\Nc1cc(C)nc(-c2ccccc2O)n1)c1ccccc1O		inconclusive: 28.2 µM [inhibitor, single point]
Cc1ccc(CN(C(=O)c2ccc(OCC(C)C)cc2)c2ccccn2)o1		inconclusive: 15.8 µM [inhibitor, partial curve, poor fit]
COc1cc2c(cc1OC)CN(CC(=O)Nc1cc(C)cc(C)c1)CC2	inactive: -4.44%	
CCn1cc2c(n1)-c1c(oc(C(=O)Nc3ccc(Br)cc3F)c1C)CC2		inconclusive: 31.6 µM [inhibitor, partial curve, poor fit]
COc1ccc(/C=C/CN2CCN(Cc3ccccc3)CC(O)C2)cc1 (stereo not drawn)		inconclusive: 11.2 µM [inhibitor, partial curve, poor fit]
